In the experiment the target is T1, Flag-OTUD5 (WT) (human) (UniProt Q96G74).
T1 sequence: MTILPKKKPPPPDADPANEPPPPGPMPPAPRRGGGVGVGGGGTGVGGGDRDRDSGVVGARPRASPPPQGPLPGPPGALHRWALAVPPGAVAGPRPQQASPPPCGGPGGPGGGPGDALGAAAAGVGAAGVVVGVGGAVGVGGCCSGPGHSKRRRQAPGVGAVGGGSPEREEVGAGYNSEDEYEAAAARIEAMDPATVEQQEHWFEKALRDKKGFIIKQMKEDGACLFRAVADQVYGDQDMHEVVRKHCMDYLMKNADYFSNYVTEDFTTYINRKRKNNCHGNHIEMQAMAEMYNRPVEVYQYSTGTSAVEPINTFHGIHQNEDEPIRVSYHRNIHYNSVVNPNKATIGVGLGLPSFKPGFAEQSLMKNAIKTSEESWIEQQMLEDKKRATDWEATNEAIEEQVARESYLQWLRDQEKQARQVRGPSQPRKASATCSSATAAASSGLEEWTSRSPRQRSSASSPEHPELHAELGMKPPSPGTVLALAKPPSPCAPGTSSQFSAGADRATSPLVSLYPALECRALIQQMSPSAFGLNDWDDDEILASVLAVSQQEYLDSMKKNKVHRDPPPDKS
In words: co-IP; HEK293T cells co-transfected with tagged plasmids; IP buffer 1% NP-40, 150 mM NaCl, 10 mM Tris-HCl pH 7.4, 1 mM EDTA; antibody with Protein A/G PLUS Agarose overnight; immunoblot.

Amino acid sequences for entries named in this document (tags omitted).
UniProt Q9Y6K9: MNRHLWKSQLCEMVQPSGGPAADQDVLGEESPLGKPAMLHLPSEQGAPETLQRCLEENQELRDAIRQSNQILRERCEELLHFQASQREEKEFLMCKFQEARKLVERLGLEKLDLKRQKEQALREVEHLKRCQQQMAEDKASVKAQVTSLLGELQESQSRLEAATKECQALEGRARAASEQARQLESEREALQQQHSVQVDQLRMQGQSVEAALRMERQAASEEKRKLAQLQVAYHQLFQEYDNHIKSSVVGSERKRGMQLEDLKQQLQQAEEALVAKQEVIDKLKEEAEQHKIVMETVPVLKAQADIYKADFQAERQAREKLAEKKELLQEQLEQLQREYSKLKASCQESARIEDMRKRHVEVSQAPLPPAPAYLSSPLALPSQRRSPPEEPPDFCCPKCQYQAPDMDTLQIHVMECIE

One substance from PMC11164869 can be followed below.

No constants are given. Whether binding was seen depends on the method and setting. In cells and extracts the contact can be indirect. Sequences can lack the tags named with a protein.

Consider Myc-IKKγ (from UniProt Q9Y6K9 1-419), for which the binding result is “no binding”.
